Laboratory results as given in the RNAGym collection of RNA variant scans (doi:10.7554/elife.90254).
Read counts are not given, so values of variants with three or more changes are uncertain.

B1: OR4K15 (parent)
chain: GUUAACGGUCAUAGGCCAUGGAAACUAGGAGCACCAUUUCGCUGCCAGUGAAGAAAUGAACAAAGAAAAUCUGGGCCAGGCAGGCAUCAAAAGAAAUAGUCUUGCGCUCAACCAGAAAGUCUGUAAUCAUUUUAAGGGUA

Variants of: B1
Assay: self-cleavage, relative activity (ratio to wild type); higher = more cleavage; in vitro, sequencing; the parent is a self-cleaving ribozyme

Row | Variant | self-cleavage
1 | A23G U26C A54G A64G A117U A118G | 0.33
2 | A23U A52G A94G | 2.18
3 | A23G A111G U130C | 0.03
4 | A23G A55G A135G | 1
5 | A23G U43A A82G U139C | 0.23
6 | A23G A78G A90G | 0.09
7 | A23C C81U A134G | 0.29
8 | A23G U97C A111U | 0.16
9 | A23U A52G A91G | 1.56
10 | A23G A54G A125G | 0.29
11 | A22U A118G A135U | 1.17
12 | A23G A111G A118G | 0
13 | A23G G48U U49A A60U A63G A92G | 0.58
14 | A23G A55G A89U A96G A117G | 2.8
15 | A23G A66G A67G A69G | 0.96
16 | A23U A30U U38C A47U A64G A111G C113U | 0.02
17 | A23U A27U A63C U70A A118G U132C | 0.42
18 | A23G A92G U108C U120A | 0.01
19 | A22U G28A U120A | 1.41
20 | A23G A51G A89U | 1.16
21 | A22U A67G A86G U120C | 0.41
22 | A23U A60G U87C A96G | 1.46
23 | A23G U108A A118U | 0.06
24 | A24C U49G A62G U108C A114U | 0.02

Row | Variant | self-cleavage
25 | A23U U26C A66G | 1.86
26 | A22U U39C A78G A89G U122C | 0.29
27 | A23G A47G U70C U100A | 0.09
28 | A23G A56G U57A A90G U103C | 0.11
29 | A23G A67G U102C U132A A140G | 1.83
30 | A23G A52G A118U U132C | 0.41
31 | A23G A51G A54G U100A | 0.34
32 | A23G A60G U70C | 0.44
33 | A23G C40A A55G A56U A140G | 0.6
34 | A23G A68G U127C | 1.11
35 | A22U A86G A92G U103A | 0.31
36 | A23G A59G A67G G136A | 0.78
37 | A23C A30G A125U | 0.73
38 | A22U A36G U100A A117G | 1.42
39 | A23U A47G A52U | 1.59
40 | A22U A52G A94G | 1.24
41 | A23U A110G A116G | 0.09
42 | A22U A89G A117G | 1.9
43 | A23G A60U U102A G123C | 0.65
44 | A23G A89G U103C | 0.25
45 | A23G A33G U37C | 0.85
46 | A23G A60G A89G A118G | 1.15
47 | A24C A33G A51G A66U | 0.43
48 | A22U A55G A91U U131C | 1.41

Row | Variant | self-cleavage
49 | A22U G31U A51G C88U A92G A96G U108C A110G | 0.01
50 | A23C U108C A114U | 0.01
51 | A23G A30U A63G A118G | 0.38
52 | A22U U38C U108G A110G | 0.02
53 | A23G A54G A55G U70A G138A | 0.3
54 | A24C G74A A125G | 0.04
55 | A23G A56G C113A | 0.06
56 | A22U U26C A82U | 0.18
57 | A23G A52U U102C | 1.69
58 | A23G A95G A135G | 2.26
59 | A23G A33U A82G | 1.32
60 | A23G U43A A47G U49A U87C A117G U131C G136A | 1.32
61 | A23G A52G A59G | 1.34
62 | A23G A82G C109U U132C | 0.12
63 | A23G U49C A56G U108C | 0
64 | A23G A52G A95G A118U | 0.82
65 | A22U A59G A62U | 1.02
66 | A23U A82G A118G | 0.44
67 | A22U A54G A68G A69G A86G A134G | 1.33
68 | A22U A92G A116U | 0.34
69 | A24C U108C A126G | 0
70 | A24C U37C A63G U100C A116U | 0.71
71 | A23G A55G A59G | 1.09
72 | A22U A23U A64G A68G | 1.16

Row | Variant | self-cleavage
73 | A23G U37C A56G U122C | 0.22
74 | A23G U43C A51G A91G U139C | 0.47
75 | A22U G79U U87C A134G | 0.07
76 | A24C A64G A94G U103C | 0.75
77 | A24C A92G U108C | 0
78 | A23U A27G A56G A62G C85G A111G | 0
79 | A24C A78U A91G | 0.11
80 | A23G U39A A135U | 0.86
81 | A23G A55U G74A | 0.16
82 | A23U A55G A66G A114U | 0.1
83 | A23G A33G A68G | 0.76
84 | A23G A51G U97A | 1.56
85 | A23G C32U A55U U139C | 1.36
86 | A23G A60G A63G U122A | 0.87
87 | A23U A92G U102C | 0.87
88 | A23G U38C A60G A67G U72G | 0.04
89 | A22U A47G U70C A92G U139C | 0.51
90 | A23G U49C A52G A69G | 0.86
91 | A23G A82G U103C A117G | 1.88
92 | A23G A55G A56G A60G A94G A110U | 0
93 | A23U A51G G58A A98G | 0.22
94 | A23G G44A U49C A56G A78G | 0.2
95 | A23G A94U U120C A126G | 0.93
96 | A24C A68G U87C | 1.28

Row | Variant | self-cleavage
97 | A23G U37C A91G A114G | 0.11
98 | A23G A30U G41C A118G | 1.02
99 | A23G A62G U139C | 1
100 | A23G A51G A67C U70C | 0.31
101 | A22U U49C G74A A118U | 0.05
102 | A23G C85U A95C | 0.75
103 | A23G G79A C105U U132C | 0.05
104 | A24C A92G U127A | 2.81
105 | A23G A95G A125G U133C | 1.07
106 | A23G A33C U57A | 1.61
107 | A22U U43C A55G A94G | 1.59
108 | A23G G31C U49C A64C U132C | 1.36
109 | A23G U39C U131C | 1.44
110 | A23G C35U A62G | 1.18
111 | A22U U127A U130C | 1.9
112 | A24C A51G A89G | 0.6
113 | A23G A54G A63G U132C | 1.05
114 | A23G A36G U38C A52U | 0.62
115 | A23U A30G A82G | 0.78
116 | A23U A30G A82U | 0.24
117 | A23C U43C A56G U87A U108C | 0.01
118 | A23G A51G A67G | 0.93
119 | A23G A67U A68G A82U | 0.44
120 | A23U A47G A98G | 0.15

Row | Variant | self-cleavage
121 | A22U A36G U38C A114G U127C | 0.03
122 | A23G A52G A114G | 0.4
123 | A23G A24G A86G | 2.57
124 | A22U A30U U43C A52G A89G U100C | 1
125 | A23G A66U A90G U108C | 0.03
126 | A23G C113A A114G | 0.02
127 | A23G U49A A96G A118G U131C | 0.74
128 | A23G A52G A117G | 1.84
129 | A23G A33G A135G | 1.58
130 | A23G U39C A64C G83U A110G U120C | 0.02
131 | A23G A52G A59G G73A | 0.39
132 | A23G A24G U26C A30G A63G A89G | 0.99
133 | A23G C76A A78G U100C | 0.08
134 | A23G U39C A86U A111U A129G | 0.04
135 | A23G C77U A92G | 1.89
136 | A23U U38C C121U | 1.5
137 | A23G U39C A82G A90G A117G U131C | 0.15
138 | A24C A56G A64G | 1.49
139 | A24C A89G A125G | 1.12
140 | A23G A78G U103C | 0.14
141 | A23G U87C A117G | 1.59
142 | A22U A54U A116G U132A | 1.38
143 | A23G U97A A135C | 1.46
144 | A23U U122C G123A U130C | 1.3

Row | Variant | self-cleavage
145 | A23G A30U A63G A78G | 0.33
146 | A23G A30G A68G U87C A98G C105U | 0.09
147 | A22U A55G U87C C105A A135U | 0.01
148 | A23G A30U A94G G115U | 0.02
149 | A23U A59G A110G | 0.05
150 | A23G A62G A118G | 0.63
151 | A23G A54G U57A U72C U131C | 0.39
152 | A23G A36G A91U A95U U127C | 1.3
153 | A22U U97C A118G | 0.49
154 | A23G A63G A134U | 0
155 | A24C U70C G83C | 0.4
156 | A23G U26C U120C | 0.49
157 | A24C U72A A91G | 0.09
158 | A24C A30G A91G | 1.14
159 | A23G A54G A69G A82G A118G | 0.23
160 | A23G A55G A118G U120A U127C U130C | 0
161 | A23G A62G A78G | 0.19
162 | A23G A96G U122C | 0
163 | A22U A30G U37C U100C C107G A118G U130C | 0
164 | A22U A52G G74U C105U U130C | 0
165 | A23U A30G A52G A66G A90U A116G A125G | 0.32
166 | A23G A52G A94G A95G | 1.76
167 | A23G A51G A67G A94G | 1.31
